# Measured values: PubChem BioAssay AID485344 (National Center for Advancing Translational Sciences (NCATS), 2010)
# Several values for one entry are separate records, joined by “and”; a condition that tells them apart may be missing. Equal entries are not always repeated. In all, about 340,000 compounds went through this assay and about 6,900 (2%) were called active. Cut-off read from the data, not from the text of the source: active = inhibition above about 30%; inactive = below that, where a call was filed. The list shows a part of the results, in another mix than the full data. Where no call is shown, the source filed none.
# Target: D(2) dopamine receptor (Homo sapiens) (UniProt P14416)
# Assay: HTS Assay for Allosteric Antagonists of the Human D2 Dopamine Receptor: Primary Screen for Antagonists; note: 0% is about no effect
# Settings: HEK293 TREx D2 cells, calcium flux, dopamine EC80; at 10 µM; stronger effect = higher value
# Outline: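 Calcium flux kinetic readout in an inducible HEK293 TREx D2 line plated overnight at 30 C. After 180 s compound exposure, an EC80 dopamine challenge follows with another 180 s kinetic read to detect antagonism.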
# UniProt P14416, sequence (P14416 whole entry, looked up): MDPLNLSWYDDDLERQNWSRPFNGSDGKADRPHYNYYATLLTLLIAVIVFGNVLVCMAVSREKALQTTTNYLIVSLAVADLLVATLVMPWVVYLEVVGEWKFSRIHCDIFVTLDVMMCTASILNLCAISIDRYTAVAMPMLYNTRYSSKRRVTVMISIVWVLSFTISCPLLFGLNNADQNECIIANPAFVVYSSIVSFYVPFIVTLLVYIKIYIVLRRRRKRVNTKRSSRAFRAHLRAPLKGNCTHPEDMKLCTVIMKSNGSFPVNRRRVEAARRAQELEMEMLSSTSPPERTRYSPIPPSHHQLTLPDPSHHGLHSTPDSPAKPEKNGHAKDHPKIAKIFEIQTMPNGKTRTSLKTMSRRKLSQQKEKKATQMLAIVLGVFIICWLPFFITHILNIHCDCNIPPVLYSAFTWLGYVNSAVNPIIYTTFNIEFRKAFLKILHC
row,SMILES,inhibition
1,CC(=O)c1ccc(NC(=O)C(C)n2nc(-c3ccccc3)ccc2=O)cc1 (stereo not given),5.29%
2,CCc1cccc(C)c1NC(=O)CCCn1c(C)c2cnn(-c3ccccc3)c(=O)c2c1C,8.16%
3,CCOC(=O)c1[nH]c(C)c(CCC(=O)Nc2ccccc2OCC)c1C,-0.983%
4,CCCCOC(=O)c1ccc(OC(=O)c2sc3ncn(Cc4cccc(F)c4)c(=O)c3c2C)cc1,-7.43%
5,CCC(C)NC(=O)Cn1c(=O)n(CCCCCC(=O)Nc2ccccc2)c(=O)c2sccc21 (stereo not given),-21.7%
6,COc1ccc2c(C)c(CCC(=O)NCCc3ccc(OC)c(OC)c3)c(=O)oc2c1,2.74%
7,COc1ccc(C(=O)Nc2nnc(SCc3cc(=O)c4cccc(F)c4[nH]3)s2)cc1,-16.7%
8,Cn1c(=O)c2c(nc(NCCCCO)n2Cc2ccccc2Cl)n(C)c1=O,-2.17%
9,O=C(NCCc1ccc(F)cc1)C(=O)NCC(c1cccs1)S(=O)(=O)c1ccc(Cl)cc1 (stereo not given),-1.04%
10,CCS(=O)(=O)N1CC(=O)N(c2ccc(Cl)cc2C)C(C)(C(=O)NC2CCCCC2)C1 (stereo not given),0.947%
11,O=C(CSc1nnc(-c2ccccc2)c(-c2ccccc2)n1)NCCc1ccccc1,-12.8%
12,Cc1ccc(C)c(N(C)C(=O)c2cc3c(s2)-c2ccccc2OC3)c1,1.97%
13,CCn1c(=O)c2cc(C(=O)NCc3ccc(F)cc3Cl)sc2c2ccccc21,-0.0278%
14,Cc1cc(=O)n(CC(=O)N2CCCc3ccccc32)c2c1c(C)nn2-c1cccc(F)c1,0.654%
15,Cc1c(CNC2CCC(C)CC2)c(C(=O)O)c(C)n1Cc1ccc(Cl)cc1 (stereo not given),-10.4%
16,CC(C)c1ccc(NC(=S)N(C)CCc2ccccn2)cc1,active: 36%
17,CCc1ccccc1NC(=O)CN1C(=O)C2CCCN2c2ccc(S(=O)(=O)N(CC)CC)cc21 (stereo not given),-9.36%
18,COC(=O)c1c(NC(=O)COc2ccc(C)cc2Br)sc2c1CCCC2,2.39%
19,Cc1cccc(NC(=O)C2CCCN(S(=O)(=O)c3ccc4c(c3)oc(=O)n4C)C2)c1C (stereo not given),13.4%
20,Cc1ccc(CNC(=O)CN(C)S(=O)(=O)c2ccc3c(c2)c(=O)n(C)c(=O)n3C)cc1,17.9%
21,CCOc1ccc(N(C)S(=O)(=O)c2cc(-c3cc(C)no3)ccc2OC)cc1,7.38%
22,CCOc1ccccc1CNC(=O)c1nc(-c2ccc(Cl)cc2)n2c1CCCCC2,4.03%
23,Cc1cccc(-c2nc(S(=O)(=O)c3ccc(Cl)cc3)c(N3CCCCCC3)o2)c1,0.986%
24,CCOc1ccc(CCNC(=O)c2c(C)oc3ncn(CC(C)C)c(=O)c23)cc1,0.643%

row,SMILES,inhibition
1,Cc1cccc(CS(=O)(=O)Cc2ccc(C(=O)NCc3ccccc3)o2)c1,2.62%
2,C=CCOc1ccccc1CN1CCC(Oc2ccc(C(=O)N3CCCCC3)cc2)CC1,active: 47.4%
3,Clc1ccccc1CNc1ncnc2c1nc1n2CCCC1,-4.02%
4,Cc1ccc(C(=O)NCC(c2ccc3c(c2)OCO3)N2CCN(c3ccc(F)cc3)CC2)cc1 (stereo not given),18.7%
5,CCOc1ccccc1NC(=O)Cn1c(=O)n(Cc2nc(C)no2)c(=O)c2ccccc21,10.8%
6,Cc1ccccc1C(=O)Nc1ccccc1OCc1cc(=O)n2ccccc2n1,8.89%
7,CC(C)NC(=O)C1CCC(Cn2c(=O)c3sccc3n(CC(=O)N3CCCC3)c2=O)CC1 (stereo not given),1.37%
8,Cc1ccccc1Nc1cc(C(=O)NC2CCCC2)c2ccccc2n1,-3.04%
9,COc1ccc(NC(=O)c2ccc3c(=O)n4nc(Nc5ccccc5C)sc4nc3c2)cc1Cl,10.9%
10,Cc1ccccc1C(=O)NCc1nnc(SCC(=O)N2CCN(c3ccccc3)CC2)n1C,active: 38.6%
11,Cc1cccc(Cn2cc(/C=C(/C#N)C(=O)Nc3cccc(Cl)c3)c3ccccc32)c1,16.1%
12,CCCOc1ccc(NC(=O)CC2C(=O)N(c3ccccc3)C(=O)N2Cc2ccc(F)cc2)cc1 (stereo not given),6.3%
13,Cc1ccc(Cn2c(C(=O)O)c(CNC3CCCCC3)c3ccc(C)cc32)cc1,10.8%
14,CCN(C(=O)c1cc2c(=O)oc3ccccc3c2s1)c1ccc(C)c(C)c1,3.85%
15,Cc1cc(C)cc(NC(=O)c2cc(C)nc3c2c(C)nn3-c2ccccc2)c1,-1.6%
16,CCOc1ccc(C2CC(=O)NC(NC(=O)c3ccc(C)cc3)=N2)cc1 (stereo not given),-1.76%
17,COc1cccc(-c2nc(SCC(=O)NCC3CCCO3)c(-c3ccc(C)cc3)[nH]2)c1 (stereo not given),23.9%
18,COc1ccc(NC(=O)Cn2c(=O)n(CCC(C)C)c(=O)c3cccnc32)cc1Cl,-15.6%
19,Cc1ccc(OCC(=O)N(Cc2ccc(Cl)cc2)Cc2ccco2)cc1C,-0.72%
20,CCOc1ccc(NC(=O)c2cc3c(C)nn(-c4ccccc4)c3s2)cc1,-7.47%
21,COc1ccccc1N1CCN(CCCCNC(=O)c2ccc3ccccc3c2)CC1,active: 75.4%
22,COC(=O)c1ccc(OCC2c3cc(OC)c(OC)cc3CCN2C(=O)c2ccccc2C)cc1 (stereo not given),-13.6%
23,Cc1nc(N2CCCC2)c2c(C(=O)N3CCN(c4ccc(F)cc4)CC3)c(C)oc2n1,-0.918%
24,Cc1ccc(-c2nnc(Nc3ccc(Br)cc3)c3ccccc23)cc1S(=O)(=O)NCC1CCCO1 (stereo not given),6.32%

row,SMILES,inhibition
1,Nc1nc(N)nc(-c2cccc(Cl)c2)n1,active: 32.1%
2,Cc1ccccc1CN1CCN(CC(=O)NCCCN2CCN(c3ccc(F)cc3)CC2)C1=O,active: 64.1%
3,Cc1cccc(N2CCN(C(=O)Cn3ncc4c3-c3cc(C)ccc3OC4)CC2C)c1 (stereo not given),3.57%
4,CCc1cccc(CC)c1NC(=O)c1c(C)oc2ccc(O)c(CN3CCN(C)CC3)c12,1.36%
5,COc1cccc(C2CC(=O)Nc3cc(OC)c(OC)c(OC)c32)c1OC(C)C (stereo not given),-0.442%
6,COc1cc(CNC(=O)c2sc3ncccc3c2-n2cccc2)cc(OC)c1OC,25.9%
7,COc1ccc(NC(=O)CN2C(=O)C(C)(C)c3ccccc32)cc1Cl,4.97%
8,CSc1ccc(CCNC(=O)C2=C(C)C(=O)OC23CCCCC3)cc1,14.7%
9,Cc1cccc(Cn2c(=O)n(CC3CCC(C(=O)NC(C)C)CC3)c(=O)c3sccc32)c1 (stereo not given),8.82%
10,CCN(CC)CCCNC(=S)N1CCN(c2nc(-c3ccccc3)cs2)CC1,active: 32.6%
11,Cc1nn(-c2ccccc2)c(OC(=O)c2cccc(Br)c2)c1S(=O)(=O)c1ccccc1,-3.78%
12,COc1ccccc1CN1CCC(CNS(=O)(=O)c2cc(-c3onc(C)c3C)ccc2OC)CC1,-8.05% and active: 33.4%
13,N#Cc1nc(-c2ccc(COc3ccccc3)o2)oc1NCc1cccnc1,-14.4%
14,CSc1nc(Nc2ccc(C)cc2C)cc(-c2ccccc2)n1,6.37%
15,CN(Cc1ccccc1)C(=O)C1CCN(S(=O)(=O)c2ccc3c(c2)oc(=O)n3C)CC1,-12.8%
16,CCOC(=O)CNC(=O)CSc1cn(CC(=O)N2CCCCCC2)c2ccccc12,-5.44%
17,O=C1COc2ccc(-c3cc(-c4ccc(Cl)cc4)c4c(n3)-c3ccccc3OC4)cc2N1,15.2%
18,Cc1cccc(C(=O)Nc2nnc(S(=O)(=O)N(C)Cc3ccc(Cl)cc3)s2)c1,-6.29%
19,Cc1cc2nc(/C(C#N)=C/c3ccncc3)[nH]c2cc1C,active: 36.2%
20,CCOc1ccc(C(=O)NCc2nnnn2-c2ccc(C)c(C)c2)cc1OCC,-1.09%
21,Cc1ccc(-n2c(=O)c3ccc(C(=O)NCc4ccccc4Cl)cc3n(CC(=O)Nc3cccc(Cl)c3)c2=O)cc1,3.57%
22,Cc1nc2cc(C(=O)NCCC3=CCCCC3)ccc2n1-c1ccc(Br)cc1,12.9%
23,Cc1cc(C)c(NC(=O)CCN2C(=O)c3ccccc3Sc3ncccc32)c(C)c1,-6.23%
24,CCc1nn(CC(=O)NCC(C)c2ccccc2)c(=O)c2cc3occc3n12 (stereo not given),17.6%

row,SMILES,inhibition
1,Cc1ccc(C(=O)c2oc3ccccc3c2NC(=O)c2cc(-c3ccc(Cl)cc3)on2)cc1,-14.4%
2,COc1ccc(C2=NC3(CCCCCC3)N(CC(=O)Nc3ccc(C)c(C)c3)C2=O)cc1,-1.93%
3,COc1ccc(CNC(=O)CN(c2cc(C(F)(F)F)ccc2Cl)S(C)(=O)=O)cc1,16.9%
4,CCn1c(C)c(C)c2cc(C(=O)NCc3ccc(N(C)C)cc3)ccc21,-13.3%
5,CC(=O)Nc1ccc(S(=O)(=O)NCC2CCC(C(=O)NCc3ccccc3Cl)CC2)cc1 (stereo not given),-12%
6,C=CCn1c(SCC(=O)Nc2sccc2C#N)nc2sc(C)c(C)c2c1=O,active: 32.2%
7,CSc1ccc(CNC(=O)Cc2csc3ccccc23)cc1,7.31%
8,CC(=O)NCCNc1nc2c(-c3cccc(C)c3)nnn2c2ccc(Cl)cc12,-6.6%
9,COc1ccc(-n2nnnc2C2CCN(S(=O)(=O)c3ccc(F)cc3Cl)CC2)cc1,13.6%
10,COc1cccc(Nc2sc(C(=O)c3ccc4c(c3)OCO4)c(N)c2S(=O)(=O)c2ccccc2)c1,5.85%
11,CC(=O)c1cccc(NC(=O)c2sc(-n3nc(C)c(CCC(C)C)c3C)nc2C)c1,0.8%
12,Cc1nc(-c2ccc(S(=O)(=O)N3CCN(c4cccc(Cl)c4)CC3)cc2)co1,23.2%
13,COc1cc(NC(=O)Cn2c(=O)n(CC(=O)NCCc3ccc(OC)c(OC)c3)c(=O)c3sccc32)cc(OC)c1,-4.35%
14,COc1cc(C)nc(SCC(N)=O)n1,active: 32.5%
15,Cc1ccc(NC(=O)/C(C#N)=C/c2ccccc2Cl)cc1C,7.77%
16,COc1ccccc1OCCCCn1c(C2CC(=O)N(c3ccccc3Cl)C2)nc2ccccc21 (stereo not given),0.698%
17,O=C(NCCCN1CCCC1=O)c1cccc(S(=O)(=O)N2CCCCC2)c1,active: 38.3%
18,CCN(CC)CCNC(=O)CN1C(=O)c2cccnc2Oc2ccc(C)cc21,-16.7%
19,COc1ccc(CCNC(=O)Cn2c(=O)n(-c3ccc(OC)c(OC)c3)c(=O)c3ccccc32)cc1OC,-2.91%
20,CN(Cc1ccccc1)Cc1c(O)ccc2c(=O)c(-c3ccccc3)c(C(F)(F)F)oc12,14.6%
21,COc1ccccc1C1CCN(Cc2ccccc2)CC1,active: 83.2%
22,Cc1ccc(NC(=O)CN2c3ccccc3S(=O)(=O)c3ccccc32)cc1F,7.37%
23,CCN(C(=O)c1sc2cc(OC)ccc2c1Cl)c1ccccc1,3.37%
